# Data from the BET-seq Pho4 binding data (Le et al. 2018).
# Some of the results follow. The energies were worked out here from pooled read counts, against the library average; single values are noisy.
# Molecular target: T1, Pho4 (S. cerevisiae) (UniProt P07270)
# T1 sequence: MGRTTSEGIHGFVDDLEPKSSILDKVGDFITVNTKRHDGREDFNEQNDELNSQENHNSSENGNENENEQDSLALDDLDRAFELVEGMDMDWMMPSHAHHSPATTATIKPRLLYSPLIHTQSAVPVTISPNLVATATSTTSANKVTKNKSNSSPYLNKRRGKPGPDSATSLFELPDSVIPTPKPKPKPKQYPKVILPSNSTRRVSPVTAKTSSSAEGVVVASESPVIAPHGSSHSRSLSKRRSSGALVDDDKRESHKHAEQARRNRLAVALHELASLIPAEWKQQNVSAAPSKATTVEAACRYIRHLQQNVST
# Experiment: relative binding free energy (BET-seq); higher = weaker binding
# Conditions: reference: library average
row,Sequence,relative binding free energy [kcal/mol]
1,GGTGACACGTGGTAAG,-0.05
2,GGGCGCACGTGGGCAT,-0.22
3,AGCTGCACGTGGGTGA,-0.26
4,TTGTCCACGTGTTGAT,0.1
5,GGTGTCACGTGGGCCG,-0.04
6,ATGATCACGTGTCGTG,0.2
7,CGAGGCACGTGGGGAC,-0.06
8,CATTGCACGTGTCGTT,0.09
9,CTCTGCACGTGGGTAG,-0.11
10,TAGGTCACGTGGGATT,0.08
11,AGGGACACGTGAAATT,0.39
12,CTATTCACGTGATGTA,0.26
13,TGGGGCACGTGAAGGC,0.1
14,CTATTCACGTGTTATG,0.21
15,TAGTGCACGTGGGTAA,-0.07
16,CAGTGCACGTGTGTGT,0
17,ATTATCACGTGACGCT,0.44
18,TTGGGCACGTGTGTCA,0.03
19,TGGTGCACGTGTTGGA,0.06
20,GGGTACACGTGGAATG,0.18
21,GAGCGCACGTGATGTT,0.09
22,GGCTTCACGTGGGGCT,0.26
23,GGTATCACGTGGTTAG,0.02

row,Sequence,relative binding free energy [kcal/mol]
1,GTGAACACGTGTGTAG,-0.04
2,CTGGGCACGTGTGTAA,-0.15
3,CGGGGCACGTGTCGTG,-0.09
4,GGCTGCACGTGCGTTT,0.1
5,CGGAGCACGTGTTATT,0.09
6,GGGGTCACGTGGGGCA,0.1
7,GGTAGCACGTGGGTTA,-0.24
8,TTTCCCACGTGTTTTG,0.02
9,TTTCTCACGTGGTTAG,0.15
10,TGCAGCACGTGTCGTG,-0.15
11,TATGTCACGTGCAAGG,0
12,GGTAGCACGTGGTGTG,-0.09
13,ACACTCACGTGGTGGG,0.23
14,TGAAGCACGTGTGGAG,0.01
15,TAGGACACGTGTTTCT,0.12
16,ATGTTCACGTGGACAG,0.27
17,TTGGACACGTGGGTCT,-0.01
18,TATAACACGTGGTGAT,-0.19
19,TTATACACGTGTGTTT,0.11
20,AAGTGCACGTGTAGGA,0.05
21,AGTTTCACGTGGACAG,0.24
22,GCTGTCACGTGTAGGG,0.02
23,CTAGTCACGTGTAAGT,0.26

row,Sequence,relative binding free energy [kcal/mol]
1,TTGTGCACGTGCCATG,-0.09
2,TGGTTCACGTGAAAAT,0.47
3,GATGGCACGTGTATTA,-0.07
4,TCGGTCACGTGGTTTG,0.15
5,GAGATCACGTGTGAGG,0.24
6,TGGTTCACGTGGAAGG,0.18
7,TGAGGCACGTGCATTG,-0.12
8,AGGAACACGTGTGGGG,0.07
9,TTCGGCACGTGCGGTT,-0.12
10,CTAATCACGTGTTGTT,0.06
11,TAGATCACGTGCGTTA,0.09
12,GTGCACACGTGTTGGG,0.05
13,TTTAACACGTGAGGGG,0.17
14,TTGCCCACGTGTTTTT,0.2
15,AGGCTCACGTGGATTG,0.33
16,TAGTGCACGTGGAAAG,0.04
17,ATTTACACGTGCGTTA,0.12
18,GGGTGCACGTGGCCAT,-0.17
19,ACTTGCACGTGTGTCG,0.05
20,TTCTACACGTGGGTGG,0.07
21,CTGGGCACGTGAAGTA,0.1
22,GGGGACACGTGTGCAG,-0.08
23,TGAGACACGTGGGGGC,-0.08

row,Sequence,relative binding free energy [kcal/mol]
1,TGTGCCACGTGGTGGA,-0.1
2,TGTGGCACGTGGGGAC,-0.13
3,TACATCACGTGGTGTT,0.03
4,TATAGCACGTGTAGTA,-0.05
5,GTTGACACGTGTTAGG,0.21
6,TGGCGCACGTGGCGTG,-0.11
7,TTTAGCACGTGCGGTG,-0.17
8,ATGTTCACGTGATAGA,0.33
9,GGATTCACGTGTAAAT,0.56
10,GGGAGCACGTGGTGAA,-0.06
11,ACATTCACGTGGTGAG,0.18
12,GGTGACACGTGAGGGG,0.3
13,TCGGTCACGTGTTGCA,0.11
14,AAAGGCACGTGGGCAT,-0.3
15,GCTTCCACGTGGAGGG,0.1
16,GTAGACACGTGAGGGT,0.2
17,ATTTACACGTGTTGAG,0.11
18,TAATTCACGTGCGTGA,0.08
19,GTTGGCACGTGATTTA,-0.02
20,CGTAACACGTGACGGT,0.19
21,GTTCTCACGTGTAGAG,0.24
22,GGGGTCACGTGGACAG,0.11
23,ATGGACACGTGATAGG,0.13

row,Sequence,relative binding free energy [kcal/mol]
1,TAAGGCACGTGGGACT,-0.2
2,GGGGTCACGTGCGATA,0.06
3,GGATTCACGTGTGGCA,0.21
4,GTGGTCACGTGACGTT,0.17
5,TGGTGCACGTGGAGAG,-0.06
6,TTCTTCACGTGGGGAT,0.09
7,TTGGTCACGTGCTCTG,-0.02
8,TGTCGCACGTGGTCTA,0.03
9,GTGTGCACGTGCTAAT,-0.01
10,TTAGGCACGTGTAGGG,-0.02
11,TGTGGCACGTGATCTA,-0.19
12,TGAGACACGTGTCTTG,0.13
13,AGCGACACGTGTGATG,0.19
14,GCATTCACGTGGAGGG,0.15
15,GATGTCACGTGATATG,0.07
16,TTCAACACGTGGGCTT,-0.03
17,ATCGGCACGTGGTGGA,-0.08
18,CGGGACACGTGGGACG,-0.04
19,ATAGGCACGTGCGTTG,-0.18
20,GGTCACACGTGGTGAG,0.11
21,TCGATCACGTGGTAGT,0.1
22,ATTAGCACGTGGTAAA,-0.02
23,GAGGGCACGTGGGAGT,-0.08
